Variants at the floor of the assay are shown more often than the library holds them.
B1: TPR 5TU (parent)
chain: GGAUCUUCUCGAUCUAACAAAAAAGACAAAUCUGCCACAAAGCUUGAGAGCAUCUUCGGAUGCAGAGGCGGCAGCCUUCGGUGGCGCGAUAGCGCCAACGUUCUCAACUAUGACACGCAAAACGCGUGCUCCGUUGAAUGGAGUUUAUCAUG

Variants of: B1
Assay: polymerase ribozyme fitness, log enrichment relative to wild type (log ratio); higher = more active; in vitro selection for triplet polymerase activity
Summary of the method: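 Fitness measures genotype enrichment against wild-type enrichment on a logarithmic scale, with inverse-variance-weighted averaging of replicates. The logarithm is base 2, and genotypes were kept only with ≥10 input reads and ≥1 read per output in Illumina sequencing. The sequenced libraries came from one triplicate in vitro selection round, including frozen incubation at −7 °C, of PCR-built, transcribed mutant libraries of each subunit of a heterodimeric triplet polymerase ribozyme.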

Row | Variant | polymerase ribozyme fitness (log ratio)
1 | U53A G59A C85A G88A U151A | ≤ -4.2
2 | U53A G59A G71A C103A | ≤ -4.2
3 | U53A G62A G67C G70U A89U C95U | ≤ -4.2
4 | U53A G65U C72U U90A A142G | ≤ -4.2
5 | U53A G65U G83C C103U A110G U111G | ≤ -4.2
6 | U53A G67A G68U G80C A142G C149A | ≤ -4.2
7 | U53A G67C C76G G84A C114U | -4.1
8 | U53A G68A C93U U139A G143C | ≤ -4.2
9 | U53A G70A G71C G141C | ≤ -4.2
10 | U53A G70A G88A C96U C123U | ≤ -4.2
11 | U53A G70C C85U U151C | ≤ -4.2
12 | U53A G70C U101G C105A | ≤ -4.2
13 | U53A G71A C75G C76U G86A A107U C108U | ≤ -4.2
14 | U53A G71C G88A | ≤ -4.2
15 | U53A G71C U77A U109G A122G | ≤ -4.2
16 | U53A G71U C95U A137G | ≤ -4.2
17 | U53A G80C | ≤ -4.2
18 | U53A G80U C103G C116U A142G | ≤ -4.2
19 | U53A G81A C99U | -2.36
20 | U53A G81C C85G C108U A138G A147G A150U G152U | -3.91
21 | U53A G83A | -1.64
22 | U53A G83A C103U C132U | -3.25
23 | U53A G83C A115G C116U A150C | ≤ -4.2
24 | U53A G83U A147C | -1.91

Row | Variant | polymerase ribozyme fitness (log ratio)
25 | U53A G84A A89C C95A U111A A150G | ≤ -4.2
26 | U53A G84A G126A G128U G141U | ≤ -4.2
27 | U53A G84U | -1.26
28 | U53A G84U A113U A115C U146A G152A | ≤ -4.2
29 | U53A G86C A91U | ≤ -4.2
30 | U53A G88U C93U | ≤ -4.2
31 | U53A G92A U146C C149A G152U | ≤ -4.2
32 | U53A G92C U102C | -3.58
33 | U53A G94C C105A C118U | ≤ -4.2
34 | U53A G94U U148G | ≤ -4.2
35 | U53A G100A A110G A142C | ≤ -4.2
36 | U53A G126A | -0.879
37 | U53A G126U | 0.134
38 | U53A G128C A137C U148G C149G | ≤ -4.2
39 | U53A G136U U144G | -1.85
40 | U53A G152U | -3.33
41 | U53A U55A | -2.2
42 | U53A U55A A89G C93A U146G | ≤ -4.2
43 | U53A U55A C95A A98G C123U G143C | -3.34
44 | U53A U55A C96A U127C A138U | ≤ -4.2
45 | U53A U55A G65C C75G G83U U101C U146G | ≤ -4.2
46 | U53A U55C A66C C103A C105G | ≤ -4.2
47 | U53A U55G A64G A73C C76U G92C | ≤ -4.2
48 | U53A U55G A66G C85G U111A A142C U146A | ≤ -4.2

Row | Variant | polymerase ribozyme fitness (log ratio)
49 | U53A U55G C79U G92A G94U G128U U134A U146G | ≤ -4.2
50 | U53A U56A C87A G143U | ≤ -4.2
51 | U53A U56A G67U G94A U102C C116U C125U U130C | ≤ -4.2
52 | U53A U56A G70A U109C | ≤ -4.2
53 | U53A U56A G71U G86C C103A A119C A121U | ≤ -4.2
54 | U53A U61A A106U C129U | -3.27
55 | U53A U61A C75A C76G C85U U127G U135G | ≤ -4.2
56 | U53A U61A C85U A97U C108U | ≤ -4.2
57 | U53A U61C C79G A115U A150U | ≤ -4.2
58 | U53A U61G C95G C99U A107U C116U C149U | ≤ -4.2
59 | U53A U77A G84A C108U | ≤ -4.2
60 | U53A U77G A91G A138U | ≤ -4.2
61 | U53A U82C C108U A137U U146G | ≤ -4.2
62 | U53A U82G G100A | ≤ -4.2
63 | U53A U90G G92C | ≤ -4.2
64 | U53A U102G A120G G133C C149A | ≤ -4.2
65 | U53A U148C | -3.4
66 | U53C A97U C114G U145A | -3.74
67 | U53C A150G | -1.01
68 | U53C C63G C87A C95U A106U | ≤ -4.2
69 | U53C C72A U139C A150G | ≤ -4.2
70 | U53C C72U C132U | -3.52
71 | U53C C76A C96A G140C | ≤ -4.2
72 | U53C C76G A121G A147U | ≤ -4.2

Row | Variant | polymerase ribozyme fitness (log ratio)
73 | U53C C87A | ≤ -4.2
74 | U53C C95U U104A G128C U139C | ≤ -4.2
75 | U53C C96G U104C C132U G152U | ≤ -4.2
76 | U53C C118U C129G G141A | ≤ -4.2
77 | U53C G58C C93U C96G | ≤ -4.2
78 | U53C G58C C93U C96G G140A | -4.1
79 | U53C G58C G70C G86C C95A | ≤ -4.2
80 | U53C G59C A91U | ≤ -4.2
81 | U53C G59U A64G C99G C125G A137C | ≤ -4.2
82 | U53C G143U | -2.74
83 | U53C U55A C99U U111C | ≤ -4.2
84 | U53C U77C C87U C103U C114U | ≤ -4.2
85 | U53G A60U C69U C131G | ≤ -4.2
86 | U53G A64U C85A C96G | ≤ -4.2
87 | U53G A66C G92C A121C | ≤ -4.2
88 | U53G A66U C93G | ≤ -4.2
89 | U53G A91U G143A | ≤ -4.2
90 | U53G A98U A115G A142C U145A | ≤ -4.2
91 | U53G A107C | ≤ -4.2
92 | U53G A137G | -2.32
93 | U53G C54A A91G A110G C114G | ≤ -4.2
94 | U53G C54G C87U A106C G126A | ≤ -4.2
95 | U53G C63U G80C G81C G84U G100U | ≤ -4.2
96 | U53G C63U G86U C114U | ≤ -4.2

Row | Variant | polymerase ribozyme fitness (log ratio)
97 | U53G C69A | ≤ -4.2
98 | U53G C75G C76U C96A A115C | ≤ -4.2
99 | U53G C76A U134A | ≤ -4.2
100 | U53G C79A C87A U102G | ≤ -4.2
101 | U53G C79G A91C U109A | ≤ -4.2
102 | U53G C79G G92A A110G | ≤ -4.2
103 | U53G C79U | ≤ -4.2
104 | U53G C85G C93G C125U G141A A142G | ≤ -4.2
105 | U53G C93U | -1.92
106 | U53G C95U C125U A142C | ≤ -4.2
107 | U53G C96A A106C A115G G126A C149A | ≤ -4.2
108 | U53G C99A G117U | ≤ -4.2
109 | U53G C103A C105G U130A | ≤ -4.2
110 | U53G G58A | -1.53
111 | U53G G58A U77A C99A | ≤ -4.2
112 | U53G G58C C95G A122U | ≤ -4.2
113 | U53G G59A G65C G86U | ≤ -4.2
114 | U53G G59C U61A G88C G94U | ≤ -4.2
115 | U53G G59U C125U G141C | -3.86
116 | U53G G68A | ≤ -4.2
117 | U53G G71C G86A | ≤ -4.2
118 | U53G G74A C114G | ≤ -4.2
119 | U53G G83C G86U | ≤ -4.2
120 | U53G G141C | -2.53

Row | Variant | polymerase ribozyme fitness (log ratio)
121 | U53G U55A G62A C93A | ≤ -4.2
122 | U53G U55A U82C G143U | ≤ -4.2
123 | U53G U56A C75A C87A U127C G141C | ≤ -4.2
124 | U53G U56G A64U G67C C149A | ≤ -4.2
125 | U53G U56G C79A U90C | ≤ -4.2
126 | U53G U61A | -3.21
127 | U53G U61A A97G A113U | -4.18
128 | U53G U61A C93A G124A A147G | ≤ -4.2
129 | U53G U61A U78C A91U A107C C116U G140C | ≤ -4.2
130 | U53G U77G C96G C118A U134C G141U | ≤ -4.2
131 | U53G U135G U148A | ≤ -4.2
132 | U53G U148C | ≤ -4.2
133 | C54A A60U A73C A91U C99G C108A A142U | ≤ -4.2
134 | C54A A60U A89U C103A | ≤ -4.2
135 | C54A A64U G74U U130G | ≤ -4.2
136 | C54A A73G G86A A150G | ≤ -4.2
137 | C54A A91C C95U A107C | ≤ -4.2
138 | C54A A91G A120G | -3.57
139 | C54A A91G U104G U127A G152A | ≤ -4.2
140 | C54A A91U U109C G140U U146C | ≤ -4.2
141 | C54A A97C U104A A137U | ≤ -4.2
142 | C54A A121U G141C | -1.65
143 | C54A C57A A66G G67A A73U | ≤ -4.2
144 | C54A C57G A91G G92A U144C | ≤ -4.2

Row | Variant | polymerase ribozyme fitness (log ratio)
145 | C54A C57G C87U A150G | -3.99
146 | C54A C75A A91C A107G A110U | ≤ -4.2
147 | C54A C75A C85U | ≤ -4.2
148 | C54A C75G C87G U146C | ≤ -4.2
149 | C54A C75G G83U | ≤ -4.2
150 | C54A C75U C93U | -2.29
151 | C54A C79G G92U G152A | ≤ -4.2
152 | C54A C85A C87U G140A A142G | ≤ -4.2
153 | C54A C85A C132U U148C | ≤ -4.2
154 | C54A C85U C95U C99U A121C G136U | ≤ -4.2
155 | C54A C85U C105U A142C | -2.12
156 | C54A C87G | ≤ -4.2
157 | C54A C87G A98G | ≤ -4.2
158 | C54A C87G C103A C105G U109C A147C | ≤ -4.2
159 | C54A C87G C114U C118U | ≤ -4.2
160 | C54A C87U A91G G143A | ≤ -4.2
161 | C54A C93A | ≤ -4.2
162 | C54A C93A A106U A142U | ≤ -4.2
163 | C54A C93G G94U | ≤ -4.2
164 | C54A C95A U144G A150G | ≤ -4.2
165 | C54A C95U C96U G140C | ≤ -4.2
166 | C54A C105G U130C | -2.7
167 | C54A C108A | ≤ -4.2
